Laboratory results as given in ChEMBL document CHEMBL1201862, “PubChem BioAssay data set” (2004).
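Method: 48-hour compound exposure of cells in 96-well plates, five concentrations, linear interpolation of endpoints. Here, GI50 denotes the concentration required for 50% inhibition of growth.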 Calls of active or inactive are those of the source. Cut-off read from the data, not from the text of the source: active = GI50 up to about 1.1 µM and inactive = higher.

What follows are molecules tested on NCI-H322M (assay: growth of human tumour cells (NCI), 48 h).

SMILES | GI50
C/C(=N\N=C(\N)S)c1ccc(Oc2ccccc2)cc1 | inactive: 15.3 µM
COc1cc2c(c(OC)c1OC)-c1ccc(SC)cc1C(=O)CC2 | active: < 0.01 µM
Oc1ccc2ccccc2c1/N=N/c1ccc(F)cc1 | inactive: > 100 µM
c1ccc(CSc2nnc3c4ccccc4c4ccccc4c3n2)cc1 | inactive: > 100 µM
Oc1c(Cl)ccc2cccnc12 | inactive: 7.57 µM
N=C(N)SCCc1ccncc1 | inactive: > 100 µM
CCOC(=O)c1c(C)c(C)n2c1NC(=O)C2 | inactive: > 100 µM
c1ccc(CNCCCNCCCCNCCCNCc2ccccc2)cc1 | inactive: 14.9 µM
Oc1nc(-c2ccc3ccccc3c2)nc2ccccc12 | inactive: > 100 µM
CCOc1cc2cnc3c4cc(OC)c(OC)cc4ccc3c2cc1OC | inactive: > 100 µM
CCOC(=O)c1c(SC(=O)/C=C/c2ccccc2)n(-c2ccccc2)c(=S)n(-c2ccccc2)c1=O | inactive: > 100 µM
CCN(CC)C(=S)SS(=O)(=O)c1ccc(C)cc1 | inactive: > 100 µM
COC(=O)c1s/c(=N\C(=S)N(C)C)n(-c2ccc(Cl)cc2)c1C(=O)OC | inactive: > 100 µM
CC1CCC2C(C)C3C(CC4C5CC=C6CC(OC7OC(CO)C(O)C(OC8OC(CO)C(O)C(O)C8O)C7OC7OC(C)C(O)C(O)C7O)CCC6(C)C5CCC43C)N2C1 (stereo not given) | inactive: 15.6 µM
C[N+](C)(C)CC1CCCCC1=O (stereo not given) | inactive: > 100 µM
CC1CCCc2c(CC3CC(=O)NC(=O)C3)n[nH]c21 (stereo not given) | inactive: > 100 µM
O=C1OC(c2ccccc2)=N/C1=C/NC(CS)C(=O)O (stereo not given) | inactive: > 100 µM
C=C1C2CC3CCC2C(OC(=O)c2ccccc2C(=O)O)C13 (stereo not given) | inactive: > 100 µM
COc1cc2c(cc1OCCN1C(=O)c3cccc4cccc(c34)C1=O)N=C[C@@H]1CCCN1C2=O | inactive: 20.1 µM
CC(C)(C)CNC(=O)NCn1cc(-c2ccccc2)nn1 | inactive: > 100 µM
Cc1ccc(NC(=O)C(=O)Cc2nc3ccccc3o2)c(C)c1 | inactive: > 100 µM
COc1cc(Cn2c3c(c4c(C(=O)NCCN(C)C)c(O)ccc42)C(=O)c2ccccc2C3=O)cc(OC)c1 | inactive: 1.69 µM
O=C1/C(=C/c2ccccc2)CN(C(=O)/C=C/c2ccccc2)C/C1=C\c1ccccc1 | inactive: 34.4 µM
COc1cc2c(/C=C3/C(=O)Nc4ccc(O)cc43)c(Cl)[nH]c2cc1C | inactive: 1.82 µM

SMILES | GI50
CC(=O)C(CN(C)C)C(c1ccccc1)c1c(O)c2ccccc2oc1=O (stereo not given) | inactive: > 100 µM
S=C1c2ccccc2N=C(NC2CCCC2)C2CSCN12 (stereo not given) | inactive: > 100 µM
COc1cccc(/C=C2\S/C(=N/Nc3nc(-c4ccc([N+](=O)[O-])cc4)cs3)NC2=O)c1O | inactive: 20.3 µM
Cc1cc2oc(=N)c(C#N)c(C)c2cc1C | inactive: 85.9 µM
CN(C)c1nc(-c2ccccc2)c(C(=O)c2c[nH]c3ccccc23)s1 | inactive: 39.7 µM
Clc1ccc(C(Cc2ccccc2)c2c(Cl)nc(N3CCNCC3)nc2Cl)cc1 (stereo not given) | inactive: 19.7 µM
COc1cc(C(=O)N(Cc2cccnc2)C(=S)N(Cc2cccnc2)C(=O)c2cc(OC)c(OC)c(OC)c2)cc(OC)c1OC | inactive: 77.6 µM
CCCCNC(=S)Nc1nc(C(=O)NNC(=S)NCC)cs1 | inactive: 98.2 µM
Cc1nc2ccc(Cl)cc2c2c1CCN2c1ccc(F)cc1 | inactive: 45.9 µM
CCCn1c(=O)c2ccccc2[n+]2c(-c3ccc([N+](=O)[O-])cc3)csc12 | inactive: 38.3 µM
c1cc2nnnn2nc1N1CCCC1 | inactive: > 100 µM
O=c1c(O)c(-c2cc(O)c(O)cc2O)oc2cc(O)c(C3OC(CO)C(O)C(O)C3O)c(O)c12 (stereo not given) | inactive: > 100 µM
O=C(/C=C\c1cccc2ccccc12)c1cccc2ccccc12 | inactive: 3.15 µM
O=C(O)c1cc2ccccc2c(/N=N/c2ccc(S(=O)(=O)O)cc2)c1O | inactive: > 100 µM
c1ccc(/C(=N/Nc2ccccn2)c2ncccn2)cc1 | inactive: 2.46 µM
c1ccc2c(c1)nc1n2CNC1 | inactive: > 100 µM
C=CCC12CCC(=O)C=C1CCC1(C2)OCCO1 (stereo not given) | inactive: > 100 µM
CCOC(=O)Cn1sc2ncc([N+](=O)[O-])cc2c1=O | inactive: 17.7 µM
C[N+]1(CCNP(=S)(NCC[N+]2(C)Cc3c(ccc4c3OCO4)C3C2c2cc4c(cc2C[C@@H]3O)OCO4)NCC[N+]2(C)Cc3c(ccc4c3OCO4)C3C2c2cc4c(cc2C[C@@H]3O)OCO4)Cc2c(ccc3c2OCO3)C2C1c1cc3c(cc1C[C@H]2O)OCO3 (stereo not given in full) | active: < 0.00191 µM
CCCCCCCCCCCCCCCCCCC1=C(O)C(=O)C=C(OC)C1=O | inactive: > 100 µM
O=S(=O)(OI(O)CC(F)(F)F)C(F)(F)F | inactive: > 100 µM
O=c1c(Cc2c(O)ccc3ccccc23)nnc2sc(-c3nn4c(=O)c(Cc5c(O)ccc6ccccc56)nnc4s3)nn12 | inactive: > 100 µM
O=C1C=C(OCCCl)C(=O)c2c(O)ccc(O)c21 | inactive: 1.73 µM
C=CCN1C(=O)/C(=C/c2ccc(Cl)cc2)N=C1SC/C=C/C | inactive: 75.2 µM

SMILES | GI50
COc1cc(C2C(=O)C(Cl)N2Nc2nc(C)cc(O)n2)cc(OC)c1OC (stereo not given) | inactive: 15 µM
COC(=O)C1Cc2cc3c(cc2C1)CCC3 | inactive: 64.9 µM
Oc1nc2c(c(-c3ccc(Br)cc3)n1)COC/C2=C\c1ccc(Br)cc1 | inactive: 24.1 µM
COc1ccc(C2SCC(=O)N2NC(=O)c2ccc(NC(C)=O)cc2)c(OC)c1 (stereo not given) | inactive: > 100 µM
CC(Cc1ccc2c(c1)OCO2)N(C)C(=O)C1=CCN(C)CC1 (stereo not given) | inactive: > 100 µM
Cn1cc(NC(=O)c2cc(NC(=O)CCCCCCCCCCC(=O)Nc3cc(C(=O)Nc4cc(C(=O)NCCC(=N)N)n(C)c4)n(C)c3)cn2C)cc1C(=O)NCCC(=N)N | inactive: 15.9 µM
Nc1cc(N)cc(Cc2ccccc2)c1 | inactive: > 100 µM
Cc1cc2c(cc1C)C(=O)C1(C2)Cc2c(ccc(C)c2C)C1=O (stereo not given) | inactive: 65.2 µM
Cc1ccc(S(=O)(=O)Nc2cccc3c(=O)nc[nH]c23)cc1 | inactive: > 100 µM
N#CC12CC=C(c3ccccc3)N=C1NC(c1ccccc1)=CC2 (stereo not given) | inactive: > 100 µM
CC(=O)NC(CCCCNC(=O)OCc1ccccc1)C(=O)NCc1ccccc1 (stereo not given) | inactive: > 100 µM
CC[n+]1cnc(N)c2c(-c3ccc(Cl)cc3)cn(-c3ccc(C)cc3)c21 | inactive: 15 µM
CN(C)c1ccc([S+]([O-])Nc2ccccc2)cc1 (stereo not given) | inactive: 78.5 µM
C/C(=N\NC(=O)C[N+](C)(C)C)c1sc(-c2cccnc2)nc1C | inactive: > 100 µM
N#Cc1cnn2ccn(C3OC(COC(=O)c4ccccc4)C(OC(=O)c4ccccc4)C3OC(=O)c3ccccc3)c12 (stereo not given) | inactive: > 31.6 µM
Oc1ccc(C2Oc3cc(O)cc4c3C2c2cc(O)cc3c2C(c2cc(O)cc5c2C4C(c2ccc(O)cc2)O5)C(c2ccc(O)cc2)O3)cc1 (stereo not given) | inactive: 9.51 µM
NC1CNC(=O)c2cscc21 (stereo not given) | inactive: > 100 µM
O=C(NN=C1NCCCCN1)Nc1ccc(Cl)cc1 | inactive: > 100 µM
CC(C)[Si](CC1=CCCCC12C(=O)N(COCC[Si](C)(C)C)c1ccccc12)(C(C)C)C(C)C (stereo not given) | inactive: > 100 µM
CCC/C(Cl)=N\OC(=O)Nc1cccc(C(F)(F)F)c1 | inactive: > 100 µM
NN/C(=N\c1ccc(Cl)cc1)NS(=O)(=O)c1ccc(S(=O)(=O)c2ccccc2)s1 | inactive: 21 µM
C=C(Cl)/C(=C\Br)CCC(Cl)C(C)C.C=C(Cl)/C(=C\Cl)CCC(Cl)C(C)C (stereo not given) | inactive: 15.4 µM
CC(=O)n1nnc2ccc([N+](=O)[O-])cc21 | inactive: > 100 µM
COC(=O)c1c(C)cccc1C1CN=NC12Cc1ccc(C)cc1C2=O (stereo not given) | inactive: 49.9 µM

SMILES | GI50
CCCCCCCCC/C=C1\CCC(CN(C)C)C1=O (stereo not given) | inactive: 3.56 µM
O=c1cc(/C=C/c2ccc(O)c(O)c2)oc(/C=C/c2ccc(O)c(O)c2)c1 | inactive: 4.82 µM
Cc1ccc2c(c1)C(=O)C(C1OC(=O)c3ccccc31)C2 (stereo not given) | inactive: 37.2 µM
C=C(C)[C@@H](C(=O)OC)N1C(=O)c2ccccc2C1=O | inactive: > 100 µM
CSc1ccc(-c2cc(-c3nc4ccccc4[nH]3)nc(N)c2C#N)cc1 | inactive: 27.2 µM
CCOC(=O)/C(Br)=C1\OC(=O)c2ccccc2-c2ccccc21 | inactive: 63.7 µM
C[C@]12CC[C@H](O)CC1=CC[C@@H]1C2CC[C@]2(C)C(=O)N(N)C(=O)CC12 (stereo not given in full) | inactive: > 100 µM
Nc1ncnc2c1ccn2C/C=C/CO | inactive: > 100 µM
COc1ccc(NC(=O)CSc2nnc(-c3ccc(/N=C\c4ccc(Cl)cc4)cc3)o2)cc1 | inactive: 31.6 µM
COC1OC(C)C(OCc2ccccc2)C(OS(=O)(=O)c2ccc(C)cc2)C1OS(=O)(=O)c1ccc(C)cc1 (stereo not given) | inactive: > 100 µM
N#Cc1cc([N+](=O)[O-])ccc1NC(=O)C(=O)C(C(=O)/C=C/c1ccccc1)C1OC(=O)c2ccccc21 (stereo not given) | inactive: > 100 µM
C[Si](C)(C)/C=C\CCCN1C(=O)CCC1=O | inactive: > 100 µM
NC1=NC(NCC2(CO)CCC2)=CC(OCC2(CO)CCC2)N1 (stereo not given) | inactive: > 100 µM
Cc1ccc(S(=O)(=O)C2=c3nc4ccccc4cc3=C3C(=O)c4ccccc4C(=O)C32)cc1 (stereo not given) | inactive: 99.3 µM
CCOC(=O)c1c(SCc2ccccc2)nc2c3ccccc3ccn12 | inactive: > 100 µM
CC1=NOC(=O)C1/N=N/c1ccc(Br)c(C)c1 (stereo not given) | inactive: 31.2 µM
OCC(O)COc1c(Cl)cc(Cl)cc1Cl (stereo not given) | inactive: > 100 µM
S=C(N/N=C/c1ccccn1)N1CC2CCC(CC2)C1 | active: < 0.0156 µM
O=c1[nH]cnc2[nH]nnc12 | inactive: 57.4 µM
COc1cc(C2c3cc4c(cc3[C@@H](NCCN3CCCCC3)C3COC(=O)[C@H]23)OCO4)cc(OC)c1O (stereo not given in full) | inactive: 3.14 µM
CCCC(=O)N[C@H]1CCc2cc(OC)c(OC)c(OC)c2-c2ccc(SC)c(=O)cc21 | active: < 0.01 µM
Cc1ccnc2nc(-c3ccc(F)cc3)cc(O)c12 | inactive: 58.2 µM
COc1cc(/C=C2\CC/C(=C\c3cc(OC)c(O)c(OC)c3)C2=O)cc(OC)c1O | inactive: 2.82 µM
